Experimental data from publication PMC5718245.
No constants are given. Whether binding was seen depends on the method and setting. In cells and extracts the contact can be indirect. Some entries that bind do so weakly or less than the wild type.

Sequences of proteins named here, by UniProt entry; tags and fusion partners are left off. A change or cut given only in a name is not applied to a line headed by its entry.
UniProt Q792Q4: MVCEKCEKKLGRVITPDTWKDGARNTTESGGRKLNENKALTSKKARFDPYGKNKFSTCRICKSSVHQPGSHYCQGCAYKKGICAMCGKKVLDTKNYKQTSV

Columns and labels:
[1] = biological target: endogenous CRIPT (rat (endogenous in mixed spinal cord cultures)) (UniProt Q792Q4); experiment: co-IP; lysates of DIV14 rat mixed spinal cord cultures, both proteins endogenous; IP with anti-CRIPT IgG on DynaBeads Protein G; blot with SAP97 and CRIPT antibodies together
[2] = biological target: FL HA-tagged CRIPT (cysteine-rich interactor of PDZ3) (UniProt Q792Q4); experiment: co-IP; HEK293 cells overexpressing both proteins; 1% NP-40 lysis buffer (25 mM Tris-HCl pH 7.4, 150 mM NaCl, 1 mM EDTA, 5% glycerol); antibody on DynaBeads Protein G, 1 h at RT; IP with anti-HA in Fig. 1B, IP antibody of Fig. 1C not stated; immunoblot
[3] = biological target: FL myc-tagged SAP97 (synapse associated protein of 97 kDa) (UniProt Q62696); experiment: co-IP; HEK293 cells overexpressing both proteins; 1% NP-40 lysis buffer; SAP97 immunoprecipitated with myc IgG on DynaBeads Protein G (Fig. 1D); immunoblot

Row | Substance | binding [2] | binding [3] | also measured
1 | endogenous SAP97 (from UniProt Q62696 1-911) |  |  | binding [1]: binds
2 | myc-tagged FL SAP97 with mutations in the PDZ2 domain (K323A, K326A) (from UniProt Q62696 1-911) | binds |  | 
3 | FL myc-tagged SAP97 (synapse associated protein of 97 kDa) (from UniProt Q62696 1-911) | binds |  | 
4 | FL HA-tagged CRIPT (cysteine-rich interactor of PDZ3) (from UniProt Q792Q4 1-101) |  | binds | 
5 | FL CRIPT V101A (from UniProt Q792Q4 1-101) |  | no binding | 
6 | myc-tagged FL SAP97 with mutations in the PDZ3 domain (H469A, R470A) (from UniProt Q62696 1-911) | no binding |  | 
